The list shows a part of the results. Sequences were assembled here from the parent chain. Inactive controls read about 0.05.
B1: TEV protease; numbered along this chain (parent)
chain: MGESLFKGPRDYNPISSSICHLTNESDGHTTSLYGIGFGPFIITNKHLFRRNNGTLVVQSLHGVFKVKDTTTLQQHLVDGRDMIIIRMPKDFPPFPQKLKFREPQREERICLVTTNFQTKSMSSMVSDTSCTFPSGDGIFWKHWIQTKDGQCGSPLVSTRDGFIVGIHSASNFTNTNNYFTSVPKNFMELLTNQEAQQWVSGWRLNADSVLWGGHKVFMVKPEEPFQPVKEATQL

Variants of: B1
Assay: raw area under fraction-flipped curve 0-4 h after induction (AUC4h, not background-subtracted), DNA-recorder readout of cleavage of the substrate (dimensionless); higher = more cleavage of the substrate by the protease variant
Conditions: temperature: 34 °C; time window: 0-4 h after rhamnose induction
Method: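 In vivo DNA recorder in E. coli TOP10(DE3) ΔrhaA at 34 °C. Each TEVp single-site mutant (parent TEVp 0) is paired with a single-site variant of the 7-mer TEVs (canonical ENLYFQ|S). The substrate sits between flexible linkers in a Bxb1-sfGFP-TEVs-SsrA fusion, so cleavage stabilises Bxb1 and speeds flipping of a recombination array, read by NGS. The value is the raw area under the fraction-flipped curve over 0-4 h after rhamnose induction (AUC4h), with ≥20 reads per time point. It is not background-subtracted; inactive controls average about 0.047.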
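Further: Bxb1 expression induced with 0.2% (w/v) L-rhamnose at OD600 near 0.5, cultures sampled hourly, flipped fraction per protease–substrate barcode pair counted by paired-end Illumina sequencing.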

Variant | area with substrate ENAYFQS | area with substrate ENDYFQS | area with substrate ENIYFQS | area with substrate ENNYFQS | area with substrate ENPYFQS | area with substrate ENQYFQS | area with substrate ENTYFQS | area with substrate ENCYFQS | area with substrate ENEYFQS | area with substrate ENFYFQS | area with substrate ENGYFQS | area with substrate ENHYFQS | area with substrate ENMYFQS | area with substrate ENRYFQS | area with substrate ENWYFQS | area with substrate ENKYFQS | area with substrate ENSYFQS | area with substrate ENVYFQS | area with substrate ENYYFQS
N186V | 0.0564 | 0.0628 | 0.0791 | 0.0465 | 0.0708 | 0.0556 | 0.0634 | – | – | – | – | – | – | – | – | – | – | – | –
T176P | 0.0561 | – | 0.0726 | – | – | 0.0682 | – | 0.0746 | 0.0593 | 0.0576 | 0.0695 | 0.0541 | 0.0474 | 0.0599 | 0.0551 | – | – | – | –
G138R | 0.0647 | – | – | 0.046 | 0.0556 | 0.0545 | 0.0774 | – | 0.0613 | 0.0504 | 0.0612 | – | – | 0.0528 | – | 0.0602 | – | – | –
G138H | 0.0507 | – | – | – | 0.0624 | – | 0.0635 | 0.0621 | 0.0512 | – | 0.0636 | – | – | – | – | – | – | – | –
G166C | 0.0492 | 0.0663 | 0.0591 | – | 0.0459 | 0.0808 | 0.0591 | 0.0672 | 0.06 | 0.0579 | 0.0597 | 0.0411 | 0.0454 | 0.0559 | 0.0359 | 0.0695 | 0.0562 | 0.0468 | 0.0578
V165C | 0.059 | 0.0598 | 0.0993 | – | 0.0585 | – | 0.0616 | – | 0.0698 | 0.076 | 0.0509 | 0.0584 | – | 0.0615 | 0.0293 | – | 0.0596 | 0.0723 | –
V165N | 0.0463 | – | – | 0.0461 | 0.0206 | – | 0.0545 | – | 0.0473 | 0.0612 | – | – | – | – | – | – | – | – | –
G150T | 0.0643 | 0.0616 | 0.0621 | 0.0645 | 0.0666 | 0.0586 | 0.0656 | 0.0695 | 0.069 | 0.061 | 0.0696 | 0.0595 | 0.0689 | 0.05 | – | 0.0498 | 0.0627 | 0.0562 | 0.0569
G150C | 0.0481 | 0.0489 | 0.0632 | 0.0617 | – | 0.0594 | 0.0553 | 0.0634 | – | 0.0588 | 0.0607 | 0.0599 | 0.0388 | 0.0647 | 0.0595 | 0.0619 | 0.0589 | 0.0534 | –
G150N | 0.0566 | 0.0566 | 0.0627 | 0.0568 | 0.0576 | 0.0588 | – | – | 0.0544 | – | 0.0602 | 0.0532 | 0.0564 | 0.0188 | – | – | 0.0569 | – | 0.0668
P134C | 0.062 | 0.0595 | 0.094 | 0.0579 | 0.0578 | 0.0572 | – | 0.06 | 0.0506 | 0.0885 | 0.0516 | 0.0528 | 0.0808 | 0.0673 | 0.0618 | – | 0.0591 | 0.0682 | 0.0565
P134T | 0.055 | – | – | 0.0701 | – | 0.0572 | 0.0508 | – | 0.0645 | 0.0595 | 0.0602 | 0.0748 | – | – | – | 0.0676 | 0.0744 | – | –
P134Y | 0.0615 | 0.0648 | 0.0639 | 0.0613 | 0.0582 | 0.0475 | 0.0659 | 0.079 | 0.0562 | 0.0649 | 0.0603 | 0.0692 | 0.0923 | 0.0557 | – | 0.0519 | 0.0643 | 0.042 | 0.0683
W141S | 0.0421 | – | – | 0.0521 | 0.0524 | 0.0524 | 0.0452 | 0.0574 | 0.0484 | 0.0581 | 0.0596 | 0.0604 | – | 0.0417 | – | 0.0565 | 0.0533 | 0.0489 | –
C152T | 0.0601 | 0.0605 | 0.0613 | 0.0582 | – | 0.0674 | – | 0.0615 | 0.0452 | 0.0685 | 0.0642 | 0.0605 | 0.0568 | 0.0398 | 0.0032 | 0.0641 | 0.0363 | – | 0.0613
C152R | 0.0586 | 0.0594 | – | 0.0573 | 0.07 | – | – | 0.0627 | – | – | – | 0.0662 | – | – | 0.0475 | 0.0671 | 0.0717 | – | –
C152Y | 0.0598 | – | – | – | – | 0.0731 | 0.0681 | 0.0079 | – | 0.0473 | 0.0444 | 0.0689 | – | 0.0816 | 0.0612 | – | 0.0429 | – | –
P155Q | 0.0464 | 0.0627 | 0.0556 | 0.0544 | 0.0412 | 0.0518 | 0.0507 | 0.0628 | 0.0589 | 0.0422 | 0.0459 | 0.0555 | 0.0728 | 0.0553 | 0.054 | 0.0552 | 0.051 | 0.0485 | 0.0342
W144D | 0.0652 | 0.0564 | – | 0.0726 | 0.0873 | 0.0624 | 0.0523 | – | 0.0676 | – | 0.0655 | 0.059 | 0.078 | – | – | 0.0922 | – | 0.0582 | –
D161Q | 0.0612 | 0.052 | – | 0.0452 | – | 0.0491 | 0.0589 | – | 0.0473 | 0.057 | 0.0448 | 0.0579 | 0.0546 | 0.0735 | 0.0397 | – | 0.0297 | 0.0533 | –
I167D | 0.0379 | 0.0553 | 0.0431 | – | 0.0527 | 0.055 | 0.0359 | 0.0512 | 0.053 | – | 0.0573 | 0.0642 | – | 0.0458 | 0.0533 | 0.0509 | 0.0513 | 0.0513 | –
I167G | 0.0253 | – | 0.0606 | – | – | 0.055 | 0.0464 | 0.0336 | 0.0646 | 0.0562 | – | 0.0508 | 0.0598 | – | – | 0.065 | 0.0474 | – | –
T159C | 0.0657 | 0.0599 | – | – | – | 0.0698 | – | – | – | – | – | 0.0451 | – | – | 0.0596 | – | 0.0734 | – | –
H168T | 0.0571 | 0.0693 | – | – | 0.0578 | – | 0.0479 | 0.0545 | 0.0853 | – | – | – | 0.0481 | – | 0.0094 | 0.0547 | 0.0565 | 0.0658 | –
H168S | 0.0601 | 0.0528 | 0.0635 | – | – | 0.0666 | 0.0547 | – | – | 0.0566 | – | – | 0.0675 | 0.0669 | – | 0.0494 | 0.0537 | – | 0.0686
H168P | 0.0731 | – | – | – | 0.0533 | – | 0.0561 | 0.0485 | 0.056 | – | 0.0532 | – | 0.0604 | 0.0628 | – | – | – | 0.0556 | –
H168V | 0.0577 | 0.0695 | 0.0609 | – | – | 0.056 | – | 0.0493 | 0.0642 | 0.048 | 0.0619 | 0.0669 | – | – | – | 0.0664 | 0.0729 | 0.0551 | 0.0468
H168R | 0.0618 | 0.0584 | – | 0.0658 | – | 0.0664 | 0.0626 | 0.0542 | – | 0.0739 | 0.0691 | 0.0387 | 0.0659 | – | – | – | 0.0629 | 0.0464 | 0.0533
